# Reference: the supplement of paper PMC3334620
# The full ranking holds about 33,000 sequences; the median of “E-score (-0.5 to 0.5)” is about -0.041, and the highest 2% start at about 0.37. This is one part of the list.
# Biological target: T1, Ecm22 (UniProt Q05958)
# T1 sequence: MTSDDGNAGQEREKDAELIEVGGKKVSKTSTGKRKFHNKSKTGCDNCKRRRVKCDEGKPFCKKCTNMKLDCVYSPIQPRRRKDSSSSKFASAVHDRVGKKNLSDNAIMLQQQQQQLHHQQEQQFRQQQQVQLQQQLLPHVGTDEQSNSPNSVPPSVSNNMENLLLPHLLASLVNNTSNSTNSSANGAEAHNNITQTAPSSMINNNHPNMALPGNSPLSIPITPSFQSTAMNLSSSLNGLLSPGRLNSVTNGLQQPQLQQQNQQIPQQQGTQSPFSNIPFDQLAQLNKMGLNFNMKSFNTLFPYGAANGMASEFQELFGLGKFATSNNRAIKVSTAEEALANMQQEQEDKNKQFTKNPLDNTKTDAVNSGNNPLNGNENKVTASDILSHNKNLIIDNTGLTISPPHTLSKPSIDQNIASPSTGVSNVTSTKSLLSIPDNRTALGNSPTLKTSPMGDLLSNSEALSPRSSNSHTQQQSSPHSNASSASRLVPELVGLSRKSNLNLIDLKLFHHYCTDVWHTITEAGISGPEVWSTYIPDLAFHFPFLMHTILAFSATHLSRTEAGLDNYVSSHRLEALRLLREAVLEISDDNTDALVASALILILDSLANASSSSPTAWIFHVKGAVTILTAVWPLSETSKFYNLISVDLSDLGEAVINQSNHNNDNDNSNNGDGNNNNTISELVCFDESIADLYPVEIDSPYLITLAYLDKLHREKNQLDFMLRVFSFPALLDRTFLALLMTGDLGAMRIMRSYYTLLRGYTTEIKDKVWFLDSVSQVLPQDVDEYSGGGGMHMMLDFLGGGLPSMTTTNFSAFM
# Experiment: PBM E-score (8-mer binding enrichment) (E-score (-0.5 to 0.5)); higher = stronger / more preferred TF binding; most listed sequences are background and not binding sites
# Conditions: protein concentration: 200 nM; construct: GST-full length
# Summary of the method: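 GST-tagged yeast TFs (full-length or DNA-binding domain) were made by PURExpress in vitro transcription/translation and applied at about 100-200 nM to universal all-10-mer Agilent arrays. The arrays were made double-stranded by primer extension, on fresh or once-stripped slides. Bound protein was detected with fluorescent anti-GST, and scans were normalised with masliner. Each ungapped eight-base word, pooled with its reverse complement, received an E-score (modified Wilcoxon-Mann-Whitney statistic) from the Universal PBM Analysis Suite.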
row,Sequence,PBM E-score
1,TAGGGCCA,-0.249
2,TAGGCTGA,-0.152
3,CGCCAATC,0.0407
4,ACCGTCAG,-0.052
5,CAAACTCA,-0.134
6,CGCGACTA,0.178
7,GGCCCTGA,-0.159
8,TATGTTAA,-0.00891
9,AAAAGACT,-0.14
10,AATGTCAT,0.0384
11,CGCTCTAA,0.12
12,GACGAGAC,0.029
13,TACTTGGA,0.0081
14,ATACAGCA,-0.00981
15,GTGACGGA,-0.0946
16,CAGCCGGG,-0.261
17,ATCGGACG,-0.02
18,ACTAGCGG,-0.145
19,GGTGAAGA,0.0382
20,CAAGGAAA,-0.0804
21,TAGAGTCA,-0.316
22,GTTTTCCA,0.061
23,ATGCTCCC,-0.0522
24,CGCATTGA,0.00604
25,ATTCAGGG,-0.289

row,Sequence,PBM E-score
1,CTCTGAAC,-0.0823
2,CGGATGAC,0.0835
3,CGTATTAC,0.357
4,GAGTTTAA,0.128
5,GACCCTAA,-0.0789
6,CGCTTGAC,-0.0297
7,AATCTAGT,0.015
8,AGGGGGAA,-0.122
9,ACTTCTTC,0.0112
10,GAGCAAGC,-0.0288
11,AACTACAG,-0.118
12,AAGGTCAC,-0.151
13,CCTGCTGA,-0.147
14,CCCCTCTA,-0.112
15,TCAGAAAA,-0.162
16,TACGGTGA,0.319
17,CTCTGCCC,-0.152
18,AAGGACTA,-0.284
19,GCCAGGGC,-0.169
20,CGCCCTCC,-0.203
21,AGCGGGCC,-0.0214
22,AAGGTTGA,-0.153
23,CCGAACAA,0.127
24,CGTTCACA,0.294
25,CTCAGCAG,-0.109

row,Sequence,PBM E-score
1,CACCAGGA,-0.118
2,ACAAATTG,0.179
3,CCTGGTTA,-0.278
4,ATATCCGG,0.102
5,TCTCAGCA,-0.206
6,GCTATCAC,-0.132
7,GTACGCGA,0.327
8,TGGCCACA,-0.294
9,AGGATGCA,-0.0202
10,AGTAATCA,-0.0686
11,ATCCGTTA,0.177
12,CAAAGACA,-0.114
13,GAACGCAC,0.179
14,ACGTCCTA,-0.198
15,TATTCGGA,0.149
16,GAACCGGA,0.118
17,TGGGCGAA,-0.0522
18,CGACCGAC,0.185
19,CGCTGGGC,0.0666
20,ACAAATAA,0.0538
21,CCACTCGC,0.184
22,CAGTCGGG,0.0609
23,TACGCACA,0.168
24,GGACCTGA,-0.127
25,AAAGCTAA,-0.102

row,Sequence,PBM E-score
1,ATGCAGGG,-0.126
2,CGATCGCA,0.253
3,AGGTCCGC,-0.238
4,GATGTGGA,-0.0129
5,GAATCCGA,0.189
6,AGGTGAAC,0.0634
7,ACCTAACT,-0.00792
8,CTTCGTAC,0.477
9,ATCATTCC,0.0822
10,GACCCCCA,-0.228
11,CCTCAACG,-0.166
12,CTACAAAC,0.0176
13,AATCTCGC,0.288
14,CTAGCCAG,-0.283
15,AAGCACAA,-0.0884
16,CAGCATTA,0.0115
17,GGCTATAC,0.178
18,AACTTTTG,-0.104
19,AAGGAGAG,-0.279
20,GCAATTAA,-0.126
21,ACGTGATC,-0.0275
22,ATGTTCGG,0.0114
23,CAAACATA,-0.11
24,AGACCAAA,-0.168
25,CTATACTA,0.0227

row,Sequence,PBM E-score
1,AACAGTTG,-0.248
2,ACCCGCCT,0.0416
3,ATTAGCGC,0.027
4,AAGGACTC,-0.09
5,AAACGTAG,0.151
6,AGTGAGGG,-0.195
7,CGGAAACG,0.269
8,CTCCAGTC,-0.197
9,ACCTTTTG,0.00019
10,ACGGCATA,0.245
11,ATCCACTC,0.0823
12,TCGAGCCA,-0.126
13,GTGTCTGA,-0.122
14,AGTGGCGA,-0.00564
15,GCAACATA,0.0381
16,CGGAAGCC,0.0166
17,GCGAAGAA,0.162
18,GTGTCCTA,-0.0163
19,ATTCCACG,-0.133
20,TGACACCA,-0.239
21,GGCGGCAA,-0.151
22,ATGGCCGA,-0.0391
23,GCCTAAAC,0.142
24,CGGCCTGC,-0.21
25,TCGGGTAA,0.236

row,Sequence,PBM E-score
1,AGCGCGTG,0.101
2,GCGGAGAC,0.0787
3,AGTAGTGC,-0.236
4,AACCGCGA,-8e-05
5,AGGGCGAC,-0.257
6,GGGATGAC,-0.0444
7,GAACATAA,0.0481
8,CGTCATAG,0.00517
9,CCAGCTGG,0.202
10,TCACCGCA,-0.15
11,AGGCCCAC,-0.256
12,AAGCCGAC,0.00835
13,AACTTGGA,-0.0614
14,CCACCTCC,-0.353
15,ACTTCCGA,0.0755
16,ACCGTCAA,0.0306
17,GAATACGC,0.152
18,CGTTCAGC,0.36
19,ATTTGAGA,-0.0201
20,ACGGCGTA,0.198
21,GTGTTCTA,0.0698
22,AAAAGTAT,-0.00263
23,AAGGAACC,0.0815
24,AGAAGTGC,-0.0651
25,AATCAACC,-0.113

row,Sequence,PBM E-score
1,AGCAAGCT,-0.25
2,CTAAGAGC,0.0418
3,AACCTCGA,-0.126
4,ACTCACCA,-0.199
5,ACGCTGAG,-0.0403
6,AAGACCCC,-0.162
7,AAAATACC,0.0602
8,CGAATCAC,0.194
9,TAATGGAA,-0.121
10,CTTTTCTA,-0.128
11,ACGATGAT,0.326
12,AGGTGGAT,-0.0473
13,ATCAGTTA,0.162
14,TAGACTGA,-0.16
15,CTTCTAAA,-0.0244
16,GTTCGGCA,-0.0392
17,CGATCCAG,0.0246
18,ATAAAAAA,-0.101
19,CGTGGCGA,0.0345
20,TCCGCACA,-0.0184
21,CACTCCTA,-0.237
22,GGGTACTA,0.0757
